T1: UNK ZnF1-6 (called full-length) (human, UniProt Q9C0B0 30-357)
T1 sequence: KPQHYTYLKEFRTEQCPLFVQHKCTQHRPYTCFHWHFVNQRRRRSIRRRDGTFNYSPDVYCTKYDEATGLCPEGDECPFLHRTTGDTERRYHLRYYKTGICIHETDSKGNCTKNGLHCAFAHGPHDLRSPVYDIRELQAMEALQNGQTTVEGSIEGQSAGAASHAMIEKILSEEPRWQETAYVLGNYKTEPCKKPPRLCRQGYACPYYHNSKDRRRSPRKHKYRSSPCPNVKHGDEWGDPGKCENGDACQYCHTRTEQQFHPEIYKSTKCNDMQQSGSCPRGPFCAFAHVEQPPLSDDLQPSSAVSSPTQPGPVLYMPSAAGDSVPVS

B1: chr1:109062613:109062715:-|3pUTR|ENSG00000197780|unk|FALSE|unique (ssRNA)
RNA: GGGAGUUCUACAGUCCGACGAUCAGUUCUGAAUACACAGGUUUUGUGUGUAUUUACUCUAUGUAUUAAAUUAUUAUUGCCCUUAGUUUAAAGUAAGGAUUACAAUUGGAUUUAAGUAGAUCACUGAAUGUUAUUGUUUAUGAACAACAGAGGAUUGAGCAUCA
B2: chr3:127036428:127036535:+|3pUTR|ENSG00000114554|msi1|total|mutant (ssRNA)
RNA: GGGAGUUCUACAGUCCGACGAUCGCGUGUGGCUGGGGCGUGGCCACCACAGAGCACAUGGCUGUGUCCCGGCGCAAGCACUUCCGCAGUAUCUGUUUACAUGCGCAAGGAUCAAGCCGACUACCUGUGCUGUCUACUGGGACACAACAGAGGAUUGAGCAUCA
B3: ENSG00000107863:be:win_4401|CDS|ENSG00000107863|bound_else_gene|NA|bound_elsewhere_windowed (ssRNA)
RNA: GGGAGUUCUACAGUCCGACGAUCAAAACAGAAGAUCAUCAUUGCCAAAGAAAACAGCACUAGGAAAGACCCCAGCACGACAAAAGAUGAAAAGAUAUCACUAGGAAAAGAGAGCACGCCUUCUGAAGAACCCUCACCACCACACAACAGAGGAUUGAGCAUCA
B4: chr2:120221238:120221343:-|3pUTR|ENSG00000226479|unk|FALSE|bound_elsewhere (ssRNA)
RNA: GGGAGUUCUACAGUCCGACGAUCAUAUGUUGAAUUCUAGUUCUCUGCAUUACCAUUAUUACGUUAAAGUAUUUUUUAAAGCUUAGGUGUGAAGAUAUGUGUCUAUUGCAGAUGUCCUUGAAAACUGCAUAAAACAGUAUGUGCCAACAGAGGAUUGAGCAUCA
B5: chr18:46811193:46811294:-|3pUTR|ENSG00000078043|unk|total|mutant (ssRNA)
RNA: GGGAGUUCUACAGUCCGACGAUCUUUUUUUUCAUUUUUUUAAAAUGAUAUCUUACCUGAAACUACAAACGACAAAAGAGAAUCCGAAAUGUUUGAAUUAAAGUGAAGAAGGGUUGGGGGAGAUGGGCCUGAACCCACUUCCUGCAACAGAGGAUUGAGCAUCA
B6: ENSG00000087470:stop:overlap|stop_codon|ENSG00000087470|stop_codon|NA|stop_codon (ssRNA)
RNA: GGGAGUUCUACAGUCCGACGAUCAUAUGGCAACAUCAGAGGCACUUAAAAUUUCAAGAGAGGUAGAUCCAGAUGGAGCCAGCUAGAUAUUAACAACAAGAAGAGUGUAACUGAUUCAAUCCGUGAUGAGUAUGCUUUUCUUCACAACAGAGGAUUGAGCAUCA
B7: ENSG00000198589:be:win_7601|CDS|ENSG00000198589|bound_else_gene|NA|bound_elsewhere_windowed (ssRNA)
RNA: GGGAGUUCUACAGUCCGACGAUCUUGCGGUGAACAAAUGGCACAACCUUCCUGCUCAUCAAGGUGCUGUACAAGACCAGCCAUACCAGCUGCCAGUGGAAAUCGAUCCUCUCAUAGCCAGCAAUACAGGAAUGCACAGGAGGCCAACAGAGGAUUGAGCAUCA
B8: chr10:117284474:117284575:-|CDS|ENSG00000165650|msi1|FALSE|bound_elsewhere (ssRNA)
RNA: GGGAGUUCUACAGUCCGACGAUCAUUGCAUUGUGGUGCAGGGAUCCUUUCAAGUUGGGAGGUCUCAUCUGUUUGGGGCAUGUUAGUUUAAAACUUGAAGAUGUGGCUUUAGGAUGCCUAGCUACAUCAAACACGGAAUACCUUCAACAGAGGAUUGAGCAUCA
B9: chr5:38481646:38481747:-|CDS|ENSG00000113594|unk|total|mutant (ssRNA)
RNA: GGGAGUUCUACAGUCCGACGAUCCAGACCUCAGGCCAAUGUAAAUACAUGGAAUUCCGUGUCUCCAGACUCUCCCCGAUCCACCGACAGCAACAGUGAGAUUGUCUCAUUUGGAAGUCCAUGCUCCAUUAAUUCCCGACAAUUCAACAGAGGAUUGAGCAUCA
B10: chr17:35273046:35273147:+|3pUTR|ENSG00000166750|unk|total|mutant (ssRNA)
RNA: GGGAGUUCUACAGUCCGACGAUCAUUCCUAAGAGCAGAAGACUGCAAAACCGUAAAUAUAUACCCAAAAGGGUCUAAUGGAUCCGUUUUUGGCAUAUCAGCACAUGAUAAUACUAUGAAGCCAUAAAAAAGAGAGAUCUCUAUCAACAGAGGAUUGAGCAUCA
B11: chr11:123627604:123627705:+|3pUTR|ENSG00000023171|unk|FALSE|unique (ssRNA)
RNA: GGGAGUUCUACAGUCCGACGAUCAUUUGGAUCUAUAACUGUACUUUGCCUGGCGCUGUGCGCAAGGUCAGAAAACUUACUGCUAGUACCUAGAAACACACAAGGCUGCCCAGCCAAAUCUUAAUGUAAAGUAGCUAGAGCCAUCAACAGAGGAUUGAGCAUCA
B12: chr13:99866285:99866388:+|CDS|ENSG00000125246|unk|FALSE|unique (ssRNA)
RNA: GGGAGUUCUACAGUCCGACGAUCUAUUCUCUACGCCCGGCAAAAGAUUGUUGUCAUAGCGAAAGCCUUUGGUCUCCAAGCCAUAGAUCUGGUGUACAUUGACUUUCGAGAUGGAGCUGGGCUGCUUAGACAGUCACGAGAAGGCAACAGAGGAUUGAGCAUCA
B13: chr7:132784869:132785660:-|three_prime_utr|ENSG00000106554|control|control|control (ssRNA)
RNA: GGGAGUUCUACAGUCCGACGAUCCUUUCAGAAUGAGCAAAACACCAUCAACGUUAAUUCCAGAGAUGGAACAUUUUUUUUCCUAGUGAGAAAACAACCCAUUUGAAGAGAAGACCACUAAUGAGAAGACCACUAAAGAGAGACCAACAGAGGAUUGAGCAUCA
B14: ENSG00000198589:be:win_6401|CDS|ENSG00000198589|bound_else_gene|NA|bound_elsewhere_windowed (ssRNA)
RNA: GGGAGUUCUACAGUCCGACGAUCGUUAUCUUUUGCAAAAUACAGCCCUGGAGAUCUUUAUGGCAAACAGAGUUGCUGUGAUGUUCAACUUCCCAGACCCUGCAACAGUAAAGAAAGUGGUUAACUAUCUACCUCGUGUUGGCGCAACAGAGGAUUGAGCAUCA

Experimental findings from PMC12136788 are described below.

The other results are listed elsewhere or left out.

This assay addresses T1, UNK ZnF1-6 (called full-length). Kind of assay: nsRBNS (natural sequence RNA bind-n-seq); RBNS binding buffer (assumed for nsRBNS): 25 mM Tris pH 7.5, 150 mM KCl, 3 mM MgCl2, 0.01% Triton X-100, 500 ug/ml BSA, 20 U/ml SUPERase-In, 4 C; UNK is unkempt and MSI1 is Musashi-1; names of the RNAs are library labels; protein concentration not given here; high values mean tight binding.
The molecule B1 yielded a binding signal of 1.13 enrichment R.
With B2 the figure was 0.644 enrichment R; with B3, 0.791 enrichment R; with B4, 0.561 enrichment R.
The molecule B5 showed a binding signal of 0.469 enrichment R.
B6 returned a binding signal of 0.746 enrichment R.
For the molecule B7, the binding signal turned out to be 0.667 enrichment R.
Molecule B8 came in with a binding signal of 0.633 enrichment R.
Molecule B9 displayed a binding signal of 0.582 enrichment R.
Regarding B10, the binding signal is 0.31 enrichment R.
Molecule B11 came in with a binding signal of 1.72 enrichment R.
For B12, the binding signal came to 0.488 enrichment R.
B13 yielded a binding signal of 0.381 enrichment R.
In turn, B14 came in with a binding signal of 0.572 enrichment R.
